# Test results reported in the supplement of paper PMC8728848.
# The other results are listed elsewhere or left out.
# Tests used:
# Test in all cases: glycan array binding signal (z-score within array); higher = stronger binding
# Conditions in all cases: glycan notation: IUPAC condensed, linker removed
# [1] = target: Gal(b1-4)GlcNAc(b1-3)Gal(b1-4)GlcNAc(b1-2)Man(a1-3)[Gal(b1-4)GlcNAc(b1-3)Gal(b1-4)GlcNAc(b1-2)Man(a1-6)]Man(b1-4)GlcNAc(b1-4)[Fuc(a1-6)]GlcNAc
# Procedure, shortened: (§1)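 Glycan array data came from 3228 arrays in the Consortium for Functional Glycomics database, and only arrays with an available protein sequence were kept. Glycan names were put into IUPAC-condensed notation, and columns mapping to the same glycan were averaged. The binding signal is a within-array Z-score, averaged across arrays of one protein sequence run at different concentrations or buffers and across linkers. A negative Z-score can be read as non-binding.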
# [2] = target: Gal(b1-4)GlcNAc(b1-3)Gal(b1-4)GlcNAc(b1-2)[Gal(b1-4)GlcNAc(b1-3)Gal(b1-4)GlcNAc(b1-6)]Man(a1-6)[Gal(b1-4)GlcNAc(b1-3)Gal(b1-4)GlcNAc(b1-2)Man(a1-3)]Man(b1-4)GlcNAc(b1-4)GlcNAc
# Procedure, shortened: as §1
# [3] = target: Gal(b1-4)GlcNAc(b1-3)Gal(b1-4)GlcNAc(b1-2)[Gal(b1-4)GlcNAc(b1-3)Gal(b1-4)GlcNAc(b1-6)]Man(a1-6)[Gal(b1-4)GlcNAc(b1-3)Gal(b1-4)GlcNAc(b1-2)Man(a1-3)]Man(b1-4)GlcNAc(b1-4)[Fuc(a1-6)]GlcNAc
# Procedure, shortened: as §1
# [4] = target: Gal(b1-4)GlcNAc(b1-3)Gal(b1-4)GlcNAc(b1-3)Gal(b1-4)GlcNAc
# Procedure, shortened: as §1
# [5] = target: Gal(b1-4)GlcNAc(b1-3)Gal(b1-4)GlcNAc(b1-3)Gal(b1-4)GlcNAc(b1-2)Man(a1-3)[Gal(b1-4)GlcNAc(b1-3)Gal(b1-4)GlcNAc(b1-3)Gal(b1-4)GlcNAc(b1-2)Man(a1-6)]Man(b1-4)GlcNAc(b1-4)GlcNAc
# Procedure, shortened: as §1
# [6] = target: Gal(b1-4)GlcNAc(b1-3)Gal(b1-4)GlcNAc(b1-3)Gal(b1-4)GlcNAc(b1-2)Man(a1-3)[Gal(b1-4)GlcNAc(b1-3)Gal(b1-4)GlcNAc(b1-3)Gal(b1-4)GlcNAc(b1-2)Man(a1-6)]Man(b1-4)GlcNAc(b1-4)[Fuc(a1-6)]GlcNAc
# Procedure, shortened: as §1
# [7] = target: Gal(b1-4)GlcNAc(b1-3)Gal(b1-4)GlcNAc(b1-3)Gal(b1-4)GlcNAc(b1-2)[Gal(b1-4)GlcNAc(b1-3)Gal(b1-4)GlcNAc(b1-3)Gal(b1-4)GlcNAc(b1-6)]Man(a1-6)[Gal(b1-4)GlcNAc(b1-3)Gal(b1-4)GlcNAc(b1-3)Gal(b1-4)GlcNAc(b1-2)Man(a1-3)]Man(b1-4)GlcNAc(b1-4)[Fuc(a1-6)]GlcNAc
# Procedure, shortened: as §1
# [8] = target: Gal(b1-4)GlcNAc(b1-3)Gal(b1-4)GlcNAc(b1-3)Gal(b1-4)GlcNAc(b1-3)Gal(b1-4)GlcNAc(b1-2)Man(a1-3)[Gal(b1-4)GlcNAc(b1-3)Gal(b1-4)GlcNAc(b1-3)Gal(b1-4)GlcNAc(b1-3)Gal(b1-4)GlcNAc(b1-2)Man(a1-6)]Man(b1-4)GlcNAc(b1-4)GlcNAc
# Procedure, shortened: as §1
# [9] = target: Gal(b1-4)GlcNAc(b1-3)Gal(b1-4)GlcNAc(b1-3)Gal(b1-4)GlcNAc(b1-3)Gal(b1-4)GlcNAc(b1-2)Man(a1-3)[Gal(b1-4)GlcNAc(b1-3)Gal(b1-4)GlcNAc(b1-3)Gal(b1-4)GlcNAc(b1-3)Gal(b1-4)GlcNAc(b1-2)Man(a1-6)]Man(b1-4)GlcNAc(b1-4)[Fuc(a1-6)]GlcNAc
# Procedure, shortened: as §1
# [10] = target: Gal(b1-4)GlcNAc(b1-3)Gal(b1-4)GlcNAc(b1-3)Gal(b1-4)GlcNAc(b1-3)Gal(b1-4)GlcNAc(b1-2)[Gal(b1-4)GlcNAc(b1-3)Gal(b1-4)GlcNAc(b1-3)Gal(b1-4)GlcNAc(b1-3)Gal(b1-4)GlcNAc(b1-6)]Man(a1-6)[Gal(b1-4)GlcNAc(b1-3)Gal(b1-4)GlcNAc(b1-3)Gal(b1-4)GlcNAc(b1-3)Gal(b1-4)GlcNAc(b1-2)Man(a1-3)]Man(b1-4)GlcNAc(b1-4)[Fuc(a1-6)]GlcNAc
# Procedure, shortened: as §1
# [11] = target: Gal(b1-4)GlcNAc(b1-3)Gal(b1-4)GlcNAc(b1-3)Gal(b1-4)GlcNAc(b1-3)Gal(b1-4)GlcNAc(b1-3)Gal(b1-4)GlcNAc(b1-2)Man(a1-3)[Gal(b1-4)GlcNAc(b1-3)Gal(b1-4)GlcNAc(b1-3)Gal(b1-4)GlcNAc(b1-3)Gal(b1-4)GlcNAc(b1-3)Gal(b1-4)GlcNAc(b1-2)Man(a1-6)]Man(b1-4)GlcNAc(b1-4)GlcNAc
# Procedure, shortened: as §1
# [12] = target: Gal(b1-4)GlcNAc(b1-3)Gal(b1-4)GlcNAc(b1-3)Gal(b1-4)GlcNAc(b1-3)Gal(b1-4)GlcNAc(b1-3)Gal(b1-4)GlcNAc(b1-2)Man(a1-3)[Gal(b1-4)GlcNAc(b1-3)Gal(b1-4)GlcNAc(b1-3)Gal(b1-4)GlcNAc(b1-3)Gal(b1-4)GlcNAc(b1-3)Gal(b1-4)GlcNAc(b1-2)Man(a1-6)]Man(b1-4)GlcNAc(b1-4)[Fuc(a1-6)]GlcNAc
# Procedure, shortened: as §1
# [13] = target: Gal(b1-4)GlcNAc(b1-3)Gal(b1-4)GlcNAc(b1-3)Gal(b1-4)GlcNAc(b1-3)Gal(b1-4)GlcNAc(b1-3)Gal(b1-4)GlcNAc(b1-2)[Gal(b1-4)GlcNAc(b1-3)Gal(b1-4)GlcNAc(b1-3)Gal(b1-4)GlcNAc(b1-3)Gal(b1-4)GlcNAc(b1-3)Gal(b1-4)GlcNAc(b1-6)]Man(a1-6)[Gal(b1-4)GlcNAc(b1-3)Gal(b1-4)GlcNAc(b1-3)Gal(b1-4)GlcNAc(b1-3)Gal(b1-4)GlcNAc(b1-3)Gal(b1-4)GlcNAc(b1-2)Man(a1-3)]Man(b1-4)GlcNAc(b1-4)[Fuc(a1-6)]GlcNAc
# Procedure, shortened: as §1
# [14] = target: Gal(b1-4)GlcNAc(b1-3)Gal(b1-4)GlcNAc(b1-3)Gal(b1-4)GlcNAc(b1-3)Gal(b1-4)GlcNAc(b1-3)Gal(b1-4)GlcNAc(b1-3)Gal(b1-4)GlcNAc(b1-2)Man(a1-3)[Gal(b1-4)GlcNAc(b1-3)Gal(b1-4)GlcNAc(b1-3)Gal(b1-4)GlcNAc(b1-3)Gal(b1-4)GlcNAc(b1-3)Gal(b1-4)GlcNAc(b1-3)Gal(b1-4)GlcNAc(b1-2)Man(a1-6)]Man(b1-4)GlcNAc(b1-4)GlcNAc
# Procedure, shortened: as §1
# [15] = target: Gal(b1-4)GlcNAc(b1-3)Gal(b1-4)GlcNAc(b1-3)GalNAc
# Procedure, shortened: as §1
# [16] = target: Gal(b1-4)GlcNAc(b1-3)Gal(b1-4)GlcNAc(b1-3)[Gal(b1-4)GlcNAc(b1-3)Gal(b1-4)GlcNAc(b1-6)]GalNAc
# Procedure, shortened: as §1
# [17] = target: Gal(b1-4)GlcNAc(b1-3)Gal(b1-4)GlcNAc(b1-6)[Gal(b1-3)]GalNAc
# Procedure, shortened: as §1
# [18] = target: Gal(b1-4)GlcNAc(b1-3)Gal(b1-4)[Fuc(a1-3)]GlcNAc(b1-3)Gal(b1-4)[Fuc(a1-3)]GlcNAc
# Procedure, shortened: as §1
# [19] = target: Gal(b1-4)GlcNAc(b1-3)GalNAc
# Procedure, shortened: as §1
# [20] = target: Gal(b1-4)GlcNAc(b1-3)[Fuc(a1-3)GlcNAc(b1-6)]Gal(b1-4)Glc
# Procedure, shortened: as §1
# [21] = target: Gal(b1-4)GlcNAc(b1-3)[Gal(b1-4)GlcNAc(b1-6)]Gal(b1-4)GlcNAc
# Procedure, shortened: as §1
# [22] = target: Gal(b1-4)GlcNAc(b1-3)[GlcNAc(b1-6)]Gal(b1-4)GlcNAc
# Procedure, shortened: as §1
# [23] = target: Gal(b1-4)GlcNAc(b1-6)Gal(b1-4)GlcNAc
# Procedure, shortened: as §1
# [24] = target: Gal(b1-4)GlcNAc(b1-6)GalNAc
# Procedure, shortened: as §1
# [25] = target: Gal(b1-4)GlcNAc(b1-6)[Gal(b1-3)]GalNAc
# Procedure, shortened: as §1
# [26] = target: Gal(b1-4)GlcNAc(b1-6)[Gal(b1-4)GlcNAc(b1-3)]GalNAc
# Procedure, shortened: as §1
# Gal(b1-4)GlcNAc6P = target: Gal(b1-4)GlcNAc6P
# Procedure, shortened: as §1
# Gal(b1-6)Gal = target: Gal(b1-6)Gal
# Procedure, shortened: as §1
# Gal3S(b1-3)GalNAc = target: Gal3S(b1-3)GalNAc
# Procedure, shortened: as §1
# Gal3S(b1-3)GlcNAc = target: Gal3S(b1-3)GlcNAc
# Procedure, shortened: as §1
binder,measurement,setting,value
CvGal2 (Crassostrea virginica) (protein) MGSSHHHHHHSSGLVPRGSHMRIREAGKRKDTTKVYQIPDGLFPGQQVMLRGRVPWGSKSFSINFSATPRMGEGDILFHLNPRPSEGVCIRNALLNGSWGAEEKWQPYFPFDDGRSFSVKIEVTNDAFRTFVNGRPFVDFLHRTDFRAGKYLTLREGAEYYDVIFQSKPNIPLTTAIHNGMRIGKTIRIRGMCTAQDGFAINFNDNRNNIYFHFNARPAQRTVVRNSYFGSWGNEETAISKEFPFYPFLYFYASFVCMEDKFAVYVNDEHFIDFAHRGNPNNISVLQIKGSVNVLDTECLEPMGEDAMTEVDSGLENGDLFVLNGLMTERGKTFAVNFLNGFTENDDIALHFNPRKSTGEVVLNSRYGGAWQSEEKVALPGVFWSNRPLQVKVETKRNKFKIYVNGVDLAKYKIRGNVEDVHAVQVKGDVFLLETLLLKRLMKPVWERLTGGIRPGTWVTLQGTPKKNWQQFVVNFALDDTLDGDIAFHFNVRRGARQVVRNHRQSGAWGREETVTPFFAFDSEATFEIVFFVKEEKFLIYFNGKLFFEFVHRVPVERITHIYMDGDCNFYEPEVVI,glycan array binding signal (z-score),[1],-0.175
same,glycan array binding signal (z-score),[2],-0.194
same,glycan array binding signal (z-score),[3],0.507
same,glycan array binding signal (z-score),[4],-0.326
same,glycan array binding signal (z-score),[5],-0.221
same,glycan array binding signal (z-score),[6],-0.174
same,glycan array binding signal (z-score),[7],0.549
same,glycan array binding signal (z-score),[8],0.117
same,glycan array binding signal (z-score),[9],-0.126
same,glycan array binding signal (z-score),[10],0.497
same,glycan array binding signal (z-score),[11],-0.037
same,glycan array binding signal (z-score),[12],0.047
same,glycan array binding signal (z-score),[13],1.02
same,glycan array binding signal (z-score),[14],0.139
same,glycan array binding signal (z-score),[15],-0.337
same,glycan array binding signal (z-score),[16],-0.293
same,glycan array binding signal (z-score),[17],-0.289
same,glycan array binding signal (z-score),[18],-0.323
same,glycan array binding signal (z-score),[19],-0.334
same,glycan array binding signal (z-score),[20],-0.335
same,glycan array binding signal (z-score),[21],-0.246
same,glycan array binding signal (z-score),[22],-0.333
same,glycan array binding signal (z-score),[23],-0.324
same,glycan array binding signal (z-score),[24],-0.324
same,glycan array binding signal (z-score),[25],-0.17
same,glycan array binding signal (z-score),[26],-0.314
same,glycan array binding signal (z-score),Gal(b1-4)GlcNAc6P,-0.336
same,glycan array binding signal (z-score),Gal(b1-6)Gal,-0.331
same,glycan array binding signal (z-score),Gal3S(b1-3)GalNAc,-0.02
same,glycan array binding signal (z-score),Gal3S(b1-3)GlcNAc,0.597
